According to the supplement of paper PMC10126150:
Values marked as one replicate rest on one cluster of the flow cell; about a third of the high ones do not repeat.

System: ATP
Assay: switch fluorescence ratio, 500 uM ATP over buffer (Cy3 cluster intensity, sum of 5 cycles each) (fold (ratio)); higher = stronger signal-on switching upon ATP binding; sequences stand for … in TCGTCGGCAGCGTCAGATGTGTATAAGAGACAGTTTTTTTTTTTTTTTTTTTTTTTTT…TC
Settings: aptamer strand: ATP DNA aptamer (quencher-CACCTGGGGGAGTATTGCGGAGGAAGG + anchor), 100 nM annealed; ATP concentration: 500 uM; one replicate
Method in brief: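 After annealing to 100 nM quencher-labelled ATP aptamer, Cy3-labelled switching-strand clusters on a modified Illumina MiSeq flow-cell were imaged in selection buffer. A second image followed after 15 min with 500 uM ATP at 22 °C, and five such buffer/ATP cycles were done, each separated by NaOH stripping and re-annealing. The fluorescence ratio, averaged per switch-domain sequence, is summed target-cycle over summed buffer-cycle Cy3 intensity per cluster, with clusters outside 100-1000 RFU excluded.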
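Note: ATP exposure 15 min at 22 °C before imaging.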

GAATTCGGGG
switch fluorescence ratio: 0.989

ACGAGATACA
switch fluorescence ratio: 1.14

CGGAGAGCAG
switch fluorescence ratio: 0.995

GACCTGGTAT
switch fluorescence ratio: 0.988

CTAAAACTAT
switch fluorescence ratio: 1

TCTCTCCCAG
switch fluorescence ratio: 5.32

ACCTATGCCT
switch fluorescence ratio: 1.03

GGATTATAG
switch fluorescence ratio: 0.957

TAGGATTACA
switch fluorescence ratio: 0.966

CGCTTAGATA
switch fluorescence ratio: 1.03

ATCGAGTATT
switch fluorescence ratio: 1

TTACCCCAGC
switch fluorescence ratio: 1.23

TGAGACGTTC
switch fluorescence ratio: 1.03

CGCGTTGCTG
switch fluorescence ratio: 1.01

CAGCGGAGGC
switch fluorescence ratio: 1.04

TAGAGTTCGA
switch fluorescence ratio: 1.01

TAGCAACAAA
switch fluorescence ratio: 1.03

GTAGTATGG
switch fluorescence ratio: 0.962

GAGTGAGAC
switch fluorescence ratio: 1.06

AAAATGTGTA
switch fluorescence ratio: 0.981

GAGGCTTTTC
switch fluorescence ratio: 1.11

ATCCCATATA
switch fluorescence ratio: 1.04

CTTGGGTAGC
switch fluorescence ratio: 0.998

TGGACGAGAT
switch fluorescence ratio: 1.07

CGTTGAGTAC
switch fluorescence ratio: 0.979

TCCTAACAGT
switch fluorescence ratio: 1.02

TGTCAGACGA
switch fluorescence ratio: 0.987

ATTCTAGGTT
switch fluorescence ratio: 1.02

CTTTTTAAT
switch fluorescence ratio: 1.09

CGGCAATTGT
switch fluorescence ratio: 1.24

AAACACAGAC
switch fluorescence ratio: 1.18

TGAGGGGGCA
switch fluorescence ratio: 1.04

TTACATGATC
switch fluorescence ratio: 1.03

TTAGATCTAT
switch fluorescence ratio: 1

CATCAGGTAA
switch fluorescence ratio: 1.07

ATTCGTCCGT
switch fluorescence ratio: 1.14

GCGGCATGAT
switch fluorescence ratio: 0.99

TAACGAAGAA
switch fluorescence ratio: 1.02

GCTGATTCGG
switch fluorescence ratio: 1.02

TCCCGCCCGG
switch fluorescence ratio: 1.02

GAGAAAAGCA
switch fluorescence ratio: 1.03

ATCCCTTACT
switch fluorescence ratio: 1

TGAATACTAT
switch fluorescence ratio: 0.97

CTGTCAACCC
switch fluorescence ratio: 1.08

ATTAAGTA
switch fluorescence ratio: 0.95

TTATCCGGGG
switch fluorescence ratio: 0.997

CAGTGAGATC
switch fluorescence ratio: 1.21

TGATGCTGGG
switch fluorescence ratio: 1.02

TCATTATCTT
switch fluorescence ratio: 1.01

TTTGTTGG
switch fluorescence ratio: 0.985

TACATGATAT
switch fluorescence ratio: 0.993

TCAGGGAGGA
switch fluorescence ratio: 0.978

TAGATATAGT
switch fluorescence ratio: 0.991

GTCTTTTTGT
switch fluorescence ratio: 0.988

GGATTGCACT
switch fluorescence ratio: 1

TGGGCGGCAC
switch fluorescence ratio: 1

TGCTGCACCT
switch fluorescence ratio: 1.13

AAGGGTGAGG
switch fluorescence ratio: 1

TCCGAGTGTA
switch fluorescence ratio: 1.01

AGTCTATGTT
switch fluorescence ratio: 0.989

GGATCTCGGC
switch fluorescence ratio: 1.04

TAGGCCGAAC
switch fluorescence ratio: 1.06

CAGGCGGGC
switch fluorescence ratio: 1.02

ATGTGGAGTT
switch fluorescence ratio: 0.963

GCAGTTGCG
switch fluorescence ratio: 1.03

TAGATATACG
switch fluorescence ratio: 1.02

AGGAATCAAA
switch fluorescence ratio: 0.961

ATCCAGTTCT
switch fluorescence ratio: 0.991

CTTTTTTCTT
switch fluorescence ratio: 1

GGTTTAGGTA
switch fluorescence ratio: 0.994

GAATGAGCAA
switch fluorescence ratio: 1.71

CAGACAAAAC
switch fluorescence ratio: 1.16

AGAGTCTCC
switch fluorescence ratio: 1.02

GGCCTTATGT
switch fluorescence ratio: 0.978

CGAAGCGAAA
switch fluorescence ratio: 1.15

TCAACCATGC
switch fluorescence ratio: 1.11

GGCTGCTCAG
switch fluorescence ratio: 1.01

TGAAGAATAT
switch fluorescence ratio: 1.03

GGTTTCCGTC
switch fluorescence ratio: 0.974

CTCTAAAGGG
switch fluorescence ratio: 1.07

TATGTGGCGA
switch fluorescence ratio: 1.01

TATATCTGAA
switch fluorescence ratio: 0.977

TCGATTGAGT
switch fluorescence ratio: 0.975

GCTTTCTGGC
switch fluorescence ratio: 1.06

AATGGGCGTA
switch fluorescence ratio: 1.03

CAACTTTGAC
switch fluorescence ratio: 0.987

TCTAGATGTG
switch fluorescence ratio: 1

AATAGAAATG
switch fluorescence ratio: 1.22

CTCATATGAC
switch fluorescence ratio: 1.02

GTGAATCATA
switch fluorescence ratio: 0.959

GGTGCCTAT
switch fluorescence ratio: 0.992

GGATGACTGA
switch fluorescence ratio: 1.03

GCCAACTTGG
switch fluorescence ratio: 0.992

CTAGCGCTTC
switch fluorescence ratio: 1.07

ACTGGGTGCA
switch fluorescence ratio: 1.04

AGGTCTTTAT
switch fluorescence ratio: 0.963

AGAGTGGGG
switch fluorescence ratio: 0.94

CGGACCTGA
switch fluorescence ratio: 1.16

TCTCATAGG
switch fluorescence ratio: 1.04

TGACGTTAGG
switch fluorescence ratio: 0.959

GCGTTACCAG
switch fluorescence ratio: 1.01

TTGTCTGGGA
switch fluorescence ratio: 0.985

AGGTGAAACG
switch fluorescence ratio: 1.02

GCGTTTCGGC
switch fluorescence ratio: 0.984

ACTCACTACC
switch fluorescence ratio: 1.33

AGCGAGAAGG
switch fluorescence ratio: 0.956

GAAAATACC
switch fluorescence ratio: 1.49

ACTACGGGA
switch fluorescence ratio: 2.05

TTTGTAGTCG
switch fluorescence ratio: 0.987

GGTTTCCTGA
switch fluorescence ratio: 0.989

GGTGAGCAAT
switch fluorescence ratio: 3.32

CAGTTGCGTT
switch fluorescence ratio: 0.97

ATCTTGTCAC
switch fluorescence ratio: 1.04

GGCGGGAAT
switch fluorescence ratio: 0.953

CAGGCGTCGA
switch fluorescence ratio: 1.14

TACTGCGAC
switch fluorescence ratio: 1.3

GACAAGACAG
switch fluorescence ratio: 1.02

AATTGACCAG
switch fluorescence ratio: 1.03

TATTTTGACA
switch fluorescence ratio: 0.951

GTCGGCCACG
switch fluorescence ratio: 0.985

CGTTGCAGTG
switch fluorescence ratio: 0.985

AATTTTGCAT
switch fluorescence ratio: 1.02

TATGTCTTAG
switch fluorescence ratio: 0.989

GCTCTATCG
switch fluorescence ratio: 0.971

GGTTCCTGAG
switch fluorescence ratio: 1.04

AGGTCGTGCA
switch fluorescence ratio: 0.99

ACGACTAATT
switch fluorescence ratio: 1.09

CCTCTTTTTC
switch fluorescence ratio: 1.57

ACAATTCTAT
switch fluorescence ratio: 0.948

AGGGTAGGAC
switch fluorescence ratio: 1

TAGGTCACAA
switch fluorescence ratio: 0.99

GGAGAAACAA
switch fluorescence ratio: 1.02

GTAACCGATA
switch fluorescence ratio: 1.03

CGTATGAACT
switch fluorescence ratio: 1

ATTCCTTACC
switch fluorescence ratio: 1.23

AGCCACTACG
switch fluorescence ratio: 1.02

AGGAAAAAAT
switch fluorescence ratio: 1.01

AAGTCTTGGA
switch fluorescence ratio: 0.996

AGTTTGGTA
switch fluorescence ratio: 0.965

GTTGTACGTA
switch fluorescence ratio: 1.03

GTCGCCAGC
switch fluorescence ratio: 0.987

CGGCACAGAA
switch fluorescence ratio: 1

GACGAAGGTT
switch fluorescence ratio: 1.02

TGTATGAGTT
switch fluorescence ratio: 0.987

GAGGAGGTA
switch fluorescence ratio: 0.968

GGCCCACTGG
switch fluorescence ratio: 1.06

ACTGCAACGC
switch fluorescence ratio: 1.18

GGGCGTCTAC
switch fluorescence ratio: 1.02

TTTACGTTGT
switch fluorescence ratio: 1.05

TCCATGCATT
switch fluorescence ratio: 1.13

TGTAAGTCGG
switch fluorescence ratio: 0.96

AGTCCGCGCA
switch fluorescence ratio: 2.14

TCAGTCATAG
switch fluorescence ratio: 1.05

CAGGCTTTCA
switch fluorescence ratio: 1.03

GGATTTGACG
switch fluorescence ratio: 1

GCGGCATGAA
switch fluorescence ratio: 0.989

TACTCCCTTT
switch fluorescence ratio: 1.05

CCGATGTTGT
switch fluorescence ratio: 1.53
